Measured values published in PubChem BioAssay AID686979 (National Center for Advancing Translational Sciences (NCATS), 2013).
“And” between values parts separate entries of the source, which are not always exact repeats. Equal values may be shown once. Screen size: about 420,000 compounds; about 50,000 (12%) were called active. This list was built around the results that the source calls inconclusive (neither active nor inactive); the mix of calls is not that of the screen. Calls come from the whole dose curve; as a rule, active = well fitted inhibition curve with a large enough effect; inconclusive = small, poorly fitted or top-dose-only effect; inactive = flat fitted curve, though single readings scatter. Potencies of inconclusive entries are left out as doubtful fits.
% is set by controls: 0 for no effect and ±100 for the full control effect; potency is the fitted concentration of half-maximal effect; tags give direction and shape of the fitted curve.

Assay: qHTS for Inhibitors of human tyrosyl-DNA phosphodiesterase 1 (TDP1): qHTS in cells in presence of CPT; note: nearly all actives have a fitted effect of over 55% in size
Details: chicken DT40 Tdp1-/-;hTDP1 cells + 20 nM CPT, ATP luminescence, 48 h; activity change, negative = growth inhibition: at 46.2 µM (top of the series) unless noted
Procedure, shortened: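 Chicken DT40 Tdp1-/- cells complemented with human TDP1, 400 cells/well, exposed to compounds plus 20 nM camptothecin for at least 48 h at 37 C; viability read as ATP content by CellTiter-Glo luminescence.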
In the case of `COc1ccccc1NC(=S)NCc1ccccn1`, the Potency is reported as active: 2.31 µM.
For `O=C(CNC(=O)c1ccc(OC(F)F)cc1)Nc1cccc(S(=O)(=O)N2CCCC2)c1`, the “activity change, negative = growth inhibition” value was inactive: -21.1%.
In the case of `O=C(N/N=C(\CC(=O)c1cccs1)C(F)(F)F)c1cccnc1`, the Potency is reported as inconclusive [inhibitor, single point].
For `CNC(=O)C[C@H]1C(=O)N(c2ccc(OC)cc2)C[C@@H]1C`, the “activity change, negative = growth inhibition” value was inactive: 1.88%.
For `Cc1nc(-c2ccc(C)c(S(=O)(=O)N3CCC(C(=O)NCc4ccc(Cl)cc4)CC3)c2)no1`, the Potency was inconclusive [inhibitor, full curve].
With `COc1ccc(CCNC(=O)C2CCCN(c3nc4c(C)cc(C)cc4s3)C2)cc1OC` (centres undefined) the Potency was active: 20.6 µM.
For `COc1ccc(NC(=O)c2cc(S(=O)(=O)N3CCc4ccccc43)cn2C)c(OC)c1`, the Potency was inconclusive [inhibitor, single point].
With `COC(=O)c1ccccc1NC(=O)COc1ccccc1C(=O)Nc1ccccc1` the Potency was inconclusive [inhibitor, single point].
In the case of `c1ccc(-c2cc3nc(NCc4cccs4)nc(NCc4ccc5occc5c4)c3s2)cc1`, the Potency is reported as inconclusive [inhibitor, single point].
With `Cn1c(=O)c2c(SCC(=O)N3CCCc4ccccc43)nc(CC(C)(C)C)nc2n(C)c1=O` the Potency was inconclusive [inhibitor, single point].
For `Cc1ccc(Nc2cc(C)nc3ccc(C)cc23)cc1`, the Potency was inconclusive [inhibitor, single point].
In the case of `CC(C(=O)NCC1CCCCC1)N1CCN(S(=O)(=O)c2ccccc2F)CC1` (centres undefined), the “activity change, negative = growth inhibition” value is reported as inactive: -24.4%.
In the case of `CC(C)CC(c1nnnn1C1CCCCC1)N1CCN(c2ncccn2)CC1` (centres undefined), the Potency is reported as inconclusive [inhibitor, single point].
In the case of `O=C(Nc1ccc(OC(F)F)c(Cl)c1)Nc1ccc2c(c1)OCO2`, the Potency is reported as inconclusive [inhibitor, single point].
In the case of `Cc1cccc(CN2CCN(CC(=O)NCc3ccc(Cl)cc3)C2=O)c1`, the “activity change, negative = growth inhibition” value is reported as inactive: 0.664%.
With `Cc1ccc(NC(=O)CN(c2ccccc2)S(=O)(=O)N(C)C)cc1` the Potency was inconclusive [inhibitor, single point].
With `COCCNC(=O)Cc1c(C)c2c(cc(C)c3c(C(C)(C)C)coc32)oc1=O` the Potency was active: 9.2 µM.
With `CCCCN1C(=O)/C(=C/C=C2/CC(C)(C)CN2C)SC1=S` the Potency was inconclusive [inhibitor, single point].
For `CCc1cc(C(=O)N2CCN(c3ccccn3)CC2)sc1C`, the Potency was inconclusive [inhibitor, partial curve].
In the case of `CC(C)(C)C(=O)Oc1ccc(S(=O)(=O)Nc2ccccc2C(=O)NCC(=O)O)cc1`, the “activity change, negative = growth inhibition” value is reported as inactive: -3.25%.
In the case of `COc1ccc(CC(=O)O/N=C(\N)c2ccc(Br)cc2)cc1OC`, the Potency is reported as inconclusive [inhibitor, single point].
In the case of `CCCCc1cc(=O)oc2cc(OCc3nn[nH]n3)c(Cl)cc12`, the “activity change, negative = growth inhibition” value is reported as inactive: 5.52%.
With `Cc1ccc(S(=O)(=O)C(CNC(=O)c2ccccc2F)c2cccs2)cc1` (centres undefined) the Potency was inconclusive [inhibitor, single point].
For `COc1ccc(/C=N/NC(=O)c2ccccc2OCc2ccccc2)c(OC)c1`, the Potency was inconclusive [inhibitor, single point].
For `Cc1cccc(CSc2nc3c(c(=O)[nH]2)C(c2cccc(O)c2)CC(=O)N3)c1` (centres undefined), the activity change, negative = growth inhibition was inconclusive: -35.4% [inhibitor].
In the case of `COc1ccc(NC(=O)c2ccc(S(=O)(=O)N3CCCCC3)cc2)cc1OC`, the Potency is reported as inconclusive [inhibitor, partial curve].
For `O=C1C2CC=CCC2C(=O)N1c1ccc(NCCc2cccc(F)c2)c([N+](=O)[O-])c1` (centres undefined), the Potency was inconclusive [inhibitor, single point].
For `CC(C)Cc1nc2cc(NS(=O)(=O)N(C)C)cc(C(=O)N3CC4(C)CC3CC(C)(C)C4)c2n1C` (centres undefined), the activity change, negative = growth inhibition was inactive: -7.91% [at 9.04 µM].
With `COc1ccc(C(=O)C2CCCN(Cc3cn(C)nc3-c3ccccc3)C2)cc1F` (centres undefined) the Potency was inconclusive [inhibitor, single point].
With `Cc1ccc(C2=NN3C(C(=O)c4ccccc4)Oc4ccccc4C3C2)cc1` (centres undefined) the Potency was inconclusive [inhibitor, single point].
With `CCOC(=O)c1c(NC(=O)c2ccoc2C)sc(C)c1C` the “activity change, negative = growth inhibition” value was inactive: -8.63%.
In the case of `Cc1sc(NC(=O)c2ccccc2)c(C(c2ccccn2)N2CCN(CCO)CC2)c1C` (centres undefined), the Potency is reported as active: 10.3 µM.
For `COc1ccc(C(=O)OCC(=O)c2ccc[nH]2)cc1`, the “activity change, negative = growth inhibition” value was inactive: 1.55%.
For `COc1ccc2c(c1)OC/C(=C\c1ccc(OC)c(O)c1)C2=O`, the Potency was active: 1.46 µM.
For `CCOC(=O)C1CCN(C(=O)COC(=O)c2c(C)c(CC)nc3ccccc23)CC1`, the Potency was inconclusive [inhibitor, single point].
In the case of `CCCCc1nc2cc(C(=O)N3CCN(c4nc(C)cnc4C)CC3)ccc2o1`, the Potency is reported as inconclusive [inhibitor, single point].
For `Cn1nc(C(=O)NCc2ccc(Cl)cc2)c2c1-c1ccccc1SC2`, the Potency was inconclusive [inhibitor, single point].
For `CC(=O)Nc1ccc(N(C(=O)c2ccco2)C(C(=O)NC2CCCCC2)c2ccccc2)cc1` (centres undefined), the “activity change, negative = growth inhibition” value was inactive: -13.9%.
For `CCn1cc(C(=O)NC(C)C23CC4CC(CC(C4)C2)C3)cn1` (centres undefined), the Potency was inconclusive [inhibitor, single point].
With `Cc1cc(-n2c(SCC(=O)Nc3ccc(F)c(F)c3)nc3n[nH]c(C)c3c2=N)ccc1Cl` the Potency was active: 2.59 µM.
With `Cc1ccc(NS(=O)(=O)c2ccc(N3CCN(c4ccc(O)cc4)CC3)c([N+](=O)[O-])c2)c(C)c1` the Potency was inconclusive [inhibitor, single point].
For `Cc1ccccc1NC(=S)/C(=C(\[O-])c1cc(C)n(Cc2ccccc2Cl)c1C)[n+]1ccccc1`, the Potency was inconclusive [inhibitor, single point].
In the case of `COCOc1cccc(CN2CCC2(C)C(=O)Nc2cc(OC)ccc2OC)c1` (centres undefined), the Potency is reported as active: 25.9 µM.
In the case of `CCCCC(CC)CNC(=O)c1ccc2c(=O)n(Cc3ccc(OC)cc3)c(=O)[nH]c2c1` (centres undefined), the Potency is reported as active: 20.6 µM.
For `Cc1ccc(S(=O)(=O)NCCC(=O)N2CCCCCCC2)cc1C`, the “activity change, negative = growth inhibition” value was inactive: 11.9%.
For `CCSc1ncc(Cl)c(C(=O)Nc2nc3ccc(OC)cc3s2)n1`, the “activity change, negative = growth inhibition” value was inactive: -21.6%.
With `Cc1ccc(-n2nc(C)c3c2NC2=C(C(=O)CC(C)(C)C2)C3c2ccccc2OCC(=O)O)cc1` (centres undefined) the Potency was inconclusive [inhibitor, single point].
In the case of `Cc1nc2sccn2c(=O)c1S(=O)(=O)NCCc1ccccc1`, the “activity change, negative = growth inhibition” value is reported as inactive: 0.103%.
For `CC1CCC(NC(=O)CCS(=O)(=O)c2ccc3c(c2)NC(=O)C(C)S3)CC1` (centres undefined), the Potency was inconclusive [inhibitor, partial curve].
With `O=C(Nc1cccc(Cl)c1)OCCN1CCN(Cc2ccccc2)CCC1=O` the Potency was inconclusive [inhibitor, single point].
With `Cc1ccccc1NC(=O)Cn1c(O)c(N=NC(=O)c2ccccc2O)c2ccccc21` the Potency was inconclusive [inhibitor, full curve, poor fit].
With `COc1ccc(-c2nc(-c3cccc(C(F)(F)F)c3)no2)cc1OC` the Potency was inconclusive [inhibitor, partial curve].
In the case of `Cc1c(C)c2c(c(C)c1O)CCC(C)(COc1ccc(CC3SC(=O)NC3=O)cc1)O2` (centres undefined), the Potency is reported as active: 21.1 µM and active: 13 µM.
For `Cc1cc(=O)n2nc(N3CCC(C(=O)Nc4ccc(C)c(Cl)c4)CC3)sc2n1`, the Potency was inconclusive [inhibitor, partial curve].
In the case of `CC1CCN2c3ccccc3CC3(C(=O)OC(C)(C)OC3=O)C2C1` (centres undefined), the Potency is reported as inconclusive [inhibitor, full curve, poor fit].
With `Cc1ccc(O)c(N=Nc2ccccc2)n1` the Potency was active: 11.9 µM and active: 2.91 µM.
In the case of `CCOC(=O)C1CCCN(Cc2cc(=O)oc3cc(C)c(C)cc23)C1` (centres undefined), the Potency is reported as inconclusive [inhibitor, single point].
With `O=[N+]([O-])c1cc(C(F)(F)F)cc([N+](=O)[O-])c1NN=C1CCCCC1` the Potency was inconclusive [inhibitor, single point].
For `Cc1cc(C)c(NC(=O)COc2nc3ccccc3nc2C)c(C)c1`, the Potency was inconclusive [inhibitor, partial curve].
In the case of `COc1ccc(C(O)c2nc(-c3ccc(OC)nc3)cs2)cc1` (centres undefined), the Potency is reported as inconclusive [inhibitor, single point].
In the case of `O=C(/C=C/c1ccccc1[N+](=O)[O-])N1CCN(c2ccccc2F)CC1`, the Potency is reported as inconclusive [inhibitor, partial curve].
In the case of `CCc1ccc(C(=O)NCc2cccs2)s1`, the activity change, negative = growth inhibition is reported as inconclusive: -30.4% [inhibitor].
With `CNC(=O)/C(C#N)=C/c1c(N2CCCCCC2)nc2ccccn2c1=O` the “activity change, negative = growth inhibition” value was inactive: -11.8%.
In the case of `COC(=O)CC1c2ccccc2S(=O)(=O)N1Cc1ccccc1` (centres undefined), the “activity change, negative = growth inhibition” value is reported as inactive: 4.06%.
With `Cc1c(C(=O)N2CCN(S(=O)(=O)c3ccccc3)CC2)oc2ccc(Br)cc12` the “activity change, negative = growth inhibition” value was inactive: -9.34%.
With `CN1CCN(S(=O)(=O)c2ccc(-c3ccc(Cl)cc3)cc2)CC1` the Potency was inconclusive [inhibitor, single point].
In the case of `COc1cc(OC)cc(C(=O)NCC(=O)OCC(=O)/C=C2/N(C)c3ccccc3C2(C)C)c1`, the Potency is reported as inconclusive [inhibitor, single point].
With `CC(=O)Nc1ccc(NC(=O)COC(=O)c2ccc(S(=O)(=O)N(C)c3ccccc3)cc2)cc1` the “activity change, negative = growth inhibition” value was inactive: -5.01%.
In the case of `C=CCn1c(CSCc2ccc(Cl)cc2Cl)nnc1SCC(=O)Nc1ccc(C(=O)O)cc1`, the “activity change, negative = growth inhibition” value is reported as inactive: -11.1%.
